# The whole screen tested about 310,000 compounds, of which about 2,200 (0.71%) showed an effect of 50% or more. The effect is printed as a negative number. Some of the results follow.
# Biological target: human ether-à-go-go-related gene (hERG) potassium channel (human, UniProt Q12809)
# Assay: primary screen, population patch clamp on CHO cells stably expressing hERG
# Sequence of human ether-à-go-go-related gene (hERG) potassium channel (Q12809 whole entry, looked up): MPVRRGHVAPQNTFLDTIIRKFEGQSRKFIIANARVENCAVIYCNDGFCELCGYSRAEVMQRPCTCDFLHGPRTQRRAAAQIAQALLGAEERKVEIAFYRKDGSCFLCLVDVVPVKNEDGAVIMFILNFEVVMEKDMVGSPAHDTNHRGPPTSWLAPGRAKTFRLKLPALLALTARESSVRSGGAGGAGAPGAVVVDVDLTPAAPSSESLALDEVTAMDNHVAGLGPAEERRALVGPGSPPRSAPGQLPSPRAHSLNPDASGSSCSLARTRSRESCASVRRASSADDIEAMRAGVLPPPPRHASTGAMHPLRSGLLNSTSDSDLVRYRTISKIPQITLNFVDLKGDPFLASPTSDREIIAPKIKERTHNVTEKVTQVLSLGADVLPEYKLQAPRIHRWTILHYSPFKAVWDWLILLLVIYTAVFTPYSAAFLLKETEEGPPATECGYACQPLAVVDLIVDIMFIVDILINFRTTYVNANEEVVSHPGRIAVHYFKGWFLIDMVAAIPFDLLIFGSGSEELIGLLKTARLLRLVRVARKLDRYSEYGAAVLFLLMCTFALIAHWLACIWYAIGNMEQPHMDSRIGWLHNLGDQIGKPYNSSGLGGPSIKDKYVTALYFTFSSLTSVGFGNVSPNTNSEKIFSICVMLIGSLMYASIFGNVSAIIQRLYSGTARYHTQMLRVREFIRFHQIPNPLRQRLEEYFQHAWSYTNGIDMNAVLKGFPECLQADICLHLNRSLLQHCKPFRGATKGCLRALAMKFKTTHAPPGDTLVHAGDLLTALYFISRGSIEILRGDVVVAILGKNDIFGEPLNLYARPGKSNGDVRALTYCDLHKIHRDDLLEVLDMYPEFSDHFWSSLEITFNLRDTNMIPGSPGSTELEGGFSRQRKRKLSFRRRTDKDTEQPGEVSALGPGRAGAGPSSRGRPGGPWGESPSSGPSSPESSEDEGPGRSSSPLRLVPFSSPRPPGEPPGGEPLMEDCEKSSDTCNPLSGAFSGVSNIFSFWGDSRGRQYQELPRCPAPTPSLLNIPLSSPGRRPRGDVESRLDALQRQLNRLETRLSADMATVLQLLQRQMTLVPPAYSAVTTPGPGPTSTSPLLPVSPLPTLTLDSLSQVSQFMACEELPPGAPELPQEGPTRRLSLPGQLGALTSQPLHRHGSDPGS
row,SMILES,"hERG current change (%, negative = inhibition) at 1uM [%]"
1,CCc1ccccc1NC(=O)CC(O)(C(=O)OC)C(F)(F)F (centres unmarked),14
2,NC(=O)C1(NC(=O)[C@@H]2CC3(CC(c4cccc(NC(=O)[C@@H]5CCC(=O)N5)c4)=NO3)CN2C(=O)c2cnccn2)CC1 (some centres unmarked),13.1
3,CCC1(c2ccccc2)NC(=O)N(CC(=O)Nc2cccnc2Cl)C1=O (centres unmarked),14.7
4,NC(=O)c1cc2ccc(O)cc2oc1=NCc1ccccc1,-7.76
5,CC(C)(C)c1ccc(Oc2ccc(N)cc2)cc1,8.6
6,COc1ccc(CCNC(=O)CCCCCn2c(SCC(N)=O)nc3cc4c(cc3c2=O)OCO4)cc1OC,6.21
7,CN1CSC2=C(C#N)C(c3cccc(OCc4ccccc4)c3)CC(=O)N2C1 (centres unmarked),4.22
8,CCOc1ccc(NC(=O)CSc2ncn[nH]2)c([N+](=O)[O-])c1,-2.08
9,CCc1nnc(NS(=O)(=O)c2ccc(N/C=C/C(=O)c3ccc(OC)cc3)cc2)s1,11.3
10,Cc1ccc(NC(=O)C2OCCc3ccccc32)cc1C (centres unmarked),8.56
11,CC1CCCN(S(=O)(=O)c2ccc(NC(=O)Cc3ccc(S(=O)(=O)N4CCOCC4)s3)cc2)C1 (centres unmarked),6.62
12,Cn1cc([N+](=O)[O-])c(C(=O)Nc2sc3c(c2C#N)CCC3)n1,11.2
13,COc1ccccc1C(=O)Nc1ccc(C(=O)N2CCCCC2)cc1,7.81
14,C=CCNC(=O)C(=O)Nc1ccc2c(c1)N(S(=O)(=O)c1cccs1)CCC2,10.8
15,COc1ccc(C2c3c(nc(C)[nH]c3=O)Oc3c2c(=O)oc2ccccc32)cc1 (centres unmarked),12.7
16,CCOc1ccc(NC(=O)C2CCC(CNc3c(N4CCC(C)CC4)c(=O)c3=O)CC2)cc1 (centres unmarked),11.8
17,CCOc1cccc(C(=O)N(Cc2ccc(F)cc2)C2CCS(=O)(=O)C2)c1 (centres unmarked),-10
18,CCOc1ccc(S(=O)(=O)N(CC)CC(=O)N2CCCC2)cc1,4.47
19,CN1CCN(NC(=O)CN(C)S(=O)(=O)c2cc(Cl)ccc2Cl)CC1,6.96
20,CC1CCCCC1NC(=O)C(C)N1C(=O)c2ccccc2C1=O (centres unmarked),5.16
21,Cc1noc(C)c1S(=O)(=O)N(CC(=O)NCc1ccc(F)cc1)c1ccc(C(C)C)cc1,15.5
22,Cc1ccc(N(CC(=O)Nc2cc(C)cc(C)c2)S(=O)(=O)c2c(C)noc2C)cc1,11.6
23,CC(=O)Nc1ccc(N2CCN(Cc3ccccc3F)CC2)cc1,-3.49
24,COc1cccc(C(=O)NCCS(=O)(=O)N2CCCCCC2)c1,10.1
25,Cc1c(NC(=S)NC(=O)c2cccc(Br)c2)c(=O)n(-c2ccccc2)n1C,10.4
26,CCOc1cccc2sc(NC(=O)c3ccc(Br)s3)nc12,11.3
27,CCc1noc(C)c1C(=O)OC(C)C(=O)NCc1ccc(OC)cc1 (centres unmarked),-3.58

row,SMILES,"hERG current change (%, negative = inhibition) at 1uM [%]"
1,CCN(CC)c1nc2ccccc2nc1C(C#N)C(=O)NCCc1ccccc1 (centres unmarked),-0.217
2,CN(C)C(C)(C)C#CC(O)(c1ccccc1)c1ccccc1,11.5
3,CS(=O)(=O)c1ccccc1C(=O)Nc1cccc2ncccc12,15
4,O=C1c2ccccc2-c2c1cccc2C(=O)N1CCN(C(=O)c2ccco2)CC1,-21.3
5,COc1cc(OC)cc(-c2nc3ccccc3c(=O)n2OC(=O)c2ccc(Br)cc2)c1,6.96
6,COc1ccccc1N1CCN(C(=O)CSc2nnc3c4ccccc4nc(Cc4ccccc4)n23)CC1,-1.26
7,Cl.NC(=O)c1c(NC(=O)C2COc3ccccc3O2)sc2c1CCN(Cc1ccccc1)C2 (centres unmarked),15
8,COc1ccc(C)cc1NC(=O)c1ccc2c(O)c(S(=O)(=O)c3ccccc3)c(=O)[nH]c2c1,12.1
9,Cc1c(C(c2cccc(O)c2)c2c(C)n(C)n(-c3ccccc3)c2=O)c(=O)n(-c2ccccc2)n1C,13.9
10,CC(=O)Nc1ccc(S(=O)(=O)N2CCC(C(=O)O)(c3ccccc3)CC2)cc1,12.4
11,O=S(=O)(NCC(c1ccco1)N1CCN(c2ccc(F)cc2)CC1)c1ccc(F)cc1 (centres unmarked),6.44
12,COc1ccc(Nc2ccc([N+](=O)[O-])cc2[N+](=O)[O-])cc1,-2.84
13,COc1ccccc1CNC(=O)C(=O)NCC1OCCCN1S(=O)(=O)c1ccc(F)cc1C (centres unmarked),16.4
14,Cc1c(C(=O)O)cc(C(C)(C)C)n1CCSCCO,10.4
15,COC(=O)c1c(NC(=O)CSc2nnc(-c3ccco3)n2Cc2ccccc2)sc(C)c1C,12.6
16,CC(=O)O.NCC(c1ccco1)c1c[nH]c2ccccc12 (centres unmarked),12.2
17,COc1ccc(N2C(=O)/C(=C\c3ccco3)N=C2SCC(=O)N(C(C)C)C(C)C)cc1Cl,20.1
18,Cc1ccc(-n2nc(C)c(/C=N/NC(=O)c3cccnc3)c2Cl)cc1,15.8
19,O=C(N/N=C1/CC(c2ccccc2)Oc2ccccc21)C1CC1 (centres unmarked),5.76
20,CCOc1ccc(-n2c(COc3ccccc3)nnc2SCC(N)=O)cc1,12.9
21,Cc1ccc(NC(=O)CCNC(=O)c2ccc([N+](=O)[O-])cc2)cc1S(=O)(=O)N1CCOCC1,6.47
22,COc1ccc(CCNC(=O)c2ccc(-c3ccc([N+](=O)[O-])cc3)o2)cc1OC,1.04
23,CCC(Sc1nc2ccccc2s1)C(=O)Nc1cc(C)on1 (centres unmarked),11
24,Oc1ccccc1C1CCCCC1c1ccccc1 (centres unmarked),14.8
25,S=C(NCCOCCOCCNC(=S)Nc1ccccc1)Nc1ccccc1,1.27
26,Nc1ccc(C2(c3ccc(N)cc3)CCCCC2)cc1,7.81

# Reference: article PMC4336329 (PLoS ONE, 2015)
